# ChEMBL document CHEMBL5291721, “A preclinical secondary pharmacology resource illuminates target-adverse drug reaction associations of marketed drugs” (Nat Commun, 2023)
# Columns and labels:
# [1] = target: T1, D(1A) dopamine receptor (Homo sapiens, UniProt P21728)
# [2] = target: Voltage-gated inwardly rectifying potassium channel KCNH2 (Homo sapiens, UniProt Q12809); type: functional
# [3] = target: T1, D(1A) dopamine receptor; remark: listed apart in the source
# Also: assay procedure not described here.
# T1 sequence (P21728 whole entry): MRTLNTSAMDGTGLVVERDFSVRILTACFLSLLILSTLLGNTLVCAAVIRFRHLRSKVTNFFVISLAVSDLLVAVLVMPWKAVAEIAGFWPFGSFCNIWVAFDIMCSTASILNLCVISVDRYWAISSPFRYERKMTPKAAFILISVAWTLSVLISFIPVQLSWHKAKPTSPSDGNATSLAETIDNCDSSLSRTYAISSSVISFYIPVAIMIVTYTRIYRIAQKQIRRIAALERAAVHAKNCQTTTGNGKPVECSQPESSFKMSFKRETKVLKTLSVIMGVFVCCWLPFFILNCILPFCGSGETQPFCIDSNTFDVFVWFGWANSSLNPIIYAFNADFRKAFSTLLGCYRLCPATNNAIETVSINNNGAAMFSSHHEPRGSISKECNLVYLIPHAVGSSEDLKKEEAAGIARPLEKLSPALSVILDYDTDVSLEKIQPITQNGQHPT
# Sequence of Voltage-gated inwardly rectifying potassium channel KCNH2 (Q12809 whole entry): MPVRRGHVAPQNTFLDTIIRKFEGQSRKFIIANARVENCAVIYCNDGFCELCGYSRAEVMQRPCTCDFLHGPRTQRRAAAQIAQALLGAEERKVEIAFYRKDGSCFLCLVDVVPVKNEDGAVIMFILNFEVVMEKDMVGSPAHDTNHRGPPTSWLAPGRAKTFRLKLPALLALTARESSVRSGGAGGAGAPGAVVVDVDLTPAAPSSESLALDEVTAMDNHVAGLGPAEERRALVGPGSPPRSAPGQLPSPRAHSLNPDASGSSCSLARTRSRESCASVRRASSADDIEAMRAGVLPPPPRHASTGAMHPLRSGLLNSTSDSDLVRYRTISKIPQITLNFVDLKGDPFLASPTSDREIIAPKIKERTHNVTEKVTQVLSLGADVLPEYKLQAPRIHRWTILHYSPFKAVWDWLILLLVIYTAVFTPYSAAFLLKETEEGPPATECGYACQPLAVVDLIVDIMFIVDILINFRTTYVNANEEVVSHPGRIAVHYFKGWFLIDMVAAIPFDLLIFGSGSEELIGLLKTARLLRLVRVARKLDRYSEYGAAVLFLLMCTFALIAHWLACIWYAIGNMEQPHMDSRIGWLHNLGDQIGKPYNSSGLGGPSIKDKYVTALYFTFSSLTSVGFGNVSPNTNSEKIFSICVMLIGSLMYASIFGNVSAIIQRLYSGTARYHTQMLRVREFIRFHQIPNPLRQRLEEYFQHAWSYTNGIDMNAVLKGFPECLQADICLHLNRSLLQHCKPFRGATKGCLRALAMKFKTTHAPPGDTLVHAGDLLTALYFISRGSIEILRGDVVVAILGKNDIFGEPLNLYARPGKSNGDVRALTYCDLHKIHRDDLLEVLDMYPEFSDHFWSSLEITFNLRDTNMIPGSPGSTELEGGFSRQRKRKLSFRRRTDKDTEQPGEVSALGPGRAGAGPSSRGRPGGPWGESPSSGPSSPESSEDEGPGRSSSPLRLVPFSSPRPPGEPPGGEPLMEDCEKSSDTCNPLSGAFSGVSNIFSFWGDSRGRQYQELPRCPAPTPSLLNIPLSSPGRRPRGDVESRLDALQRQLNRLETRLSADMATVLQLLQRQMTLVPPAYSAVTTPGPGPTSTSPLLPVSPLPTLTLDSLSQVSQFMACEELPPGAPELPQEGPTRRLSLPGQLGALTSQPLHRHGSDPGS
structure (smiles),measurement,setting,value
CN(C)CCC=C1c2ccccc2COc2ccccc21 [DOXEPIN],AC50,[1],286 nM
same,AC50,[2],4000 nM
same,AC50,[3],301 nM
